Laboratory results: PubChem BioAssay AID1794842 (National Center for Advancing Translational Sciences (NCATS), 2023)
Fewer than 10 of roughly 2,800 compounds were called active. The call rests on the fitted dose curve; in most records, active means well fitted curve in the direction sought with a large enough effect; inconclusive means small, poorly fitted or top-dose-only effect, or another doubt; inactive means no such curve, though single readings can be large or run the other way. Some of the results follow.

These compounds were tested against Metallo-beta-lactamase type 2 (Klebsiella pneumoniae) (UniProt C7C422) (assay: qHTS to identify inhibitors of the New Delhi Metallo-beta-lactamase (NDM): Meropenem screen against the machine-based learning selections.). Settings: Purified NDM-1, meropenem hydrolysis, absorbance 300 nm; at 38.4 µM (top of the series) unless noted.
Procedure, shortened: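 Hydrolysis by 2 nM NDM-1 was followed by absorbance after >30 min compound preincubation in HEPES pH 7.0 buffer with 1 uM Zn2SO4. For nitrocefin (16.7 uM, 15 min, 485 nm) and meropenem (50 uM, 30 min, 300 nm), each substrate ran on separate plates.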
Further: % of control where 0% means no effect.

Sequence of UniProt C7C422 (C7C422 whole entry, looked up): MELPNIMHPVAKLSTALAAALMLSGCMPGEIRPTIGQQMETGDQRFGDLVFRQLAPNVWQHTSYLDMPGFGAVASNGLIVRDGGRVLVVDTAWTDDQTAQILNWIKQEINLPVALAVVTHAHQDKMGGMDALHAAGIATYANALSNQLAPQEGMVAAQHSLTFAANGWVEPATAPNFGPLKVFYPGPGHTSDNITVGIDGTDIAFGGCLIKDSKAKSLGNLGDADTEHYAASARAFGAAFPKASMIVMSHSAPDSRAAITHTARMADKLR

Activity change, negative = inhibition, inactive:
CCn1cnnc1CCNC(=O)c1cc(-c2ccc(C)cc2)nc2ccccc12 -0.957%, CC(C)(C)C(=O)N1CCC2(C1)C(=O)N(CCc1ccccc1)c1ccccc12 (configuration not stated) -1.91%, CN1CCCC2(C1)CN(Cc1cccnc1)c1ccc(C(=O)Nc3ccc(F)cc3)cc12 (configuration not stated) 3.28% [at 57.5 µM], O=C(c1cccc2cnccc12)N1CCC2(CC1)Nc1ccccc1NC2=O 1.39%, CC(C)(C)CC(=O)N1CCC(C(NC(=O)c2ccccc2Cl)C(=O)N2CCCCC2)CC1 (configuration not stated) -4.52%, O=C(O)C[C@@H]1CCN(C(=O)C2CCCCC2)C[C@@H]1CCN1CCN(c2ccccn2)CC1 18.4%, Cc1ccc(NC(=O)N2CCCC(c3nccn3Cc3ccncc3)C2)cc1C (configuration not stated) 0.303%, c1ccc(-c2cn3c(n2)CO[C@@H](CNCc2ccc4ccccc4n2)C3)cc1 23.8% [at 57.5 µM], COC[C@]1(O)CCN(C(=O)CSCc2ccccc2C)CC1(C)C -2.58%, COCCn1nc2n(c1=O)CCN(S(=O)(=O)c1ccc(Cl)s1)CC2 -3%, CC(C)CCNC(=O)c1cccnc1N1CC2CC(C1)[C@H]1CCCC(=O)N1C2 (some centres not stated) -1.13%, O[C@H]1[C@H](NCC2CCCCC2)[C@H]2CO[C@H](O2)[C@@H]1N1CCC(Cc2ccccc2)CC1 -2.59% [at 57.5 µM], CN1CC2(CCN(C(=O)c3ccccc3-c3nn[nH]n3)CC2)CC1C(=O)O (configuration not stated) 57.1%, COCCNS(=O)(=O)c1cc(C(=O)O)cc(-c2cccc(C(C)N(C)C)c2)c1 (configuration not stated) -0.0026%, CC1=C[C@@H](CNC(=O)C2CCCCC2)[C@H](C(C)C)C[C@H]1CC(=O)N1CCN(c2ccccn2)CC1 0.957%, C#CCNC(=O)C[C@@H]1C[C@@H](C(C)C)[C@H](CNS(C)(=O)=O)C=C1C -2.46% [at 57.5 µM], O=C(C[C@@H]1CCNC[C@@H]1Cc1cc(CN2CCOCC2)on1)N1CCC(Cc2ccccc2)CC1 -1.24%, CCc1noc(-c2ccn3c(CNC(=O)c4ccc(OC)c(F)c4)nnc3c2)n1 -2.08%, COC(=O)[C@@H]1Cc2ncn(Cc3ccc(Cl)cc3)c2CN1Cc1ccc(C(=O)O)cc1 8.42%, CCNC(=O)N[C@H]1CO[C@H]2[C@@H]1OC[C@@H]2Nc1nccc(-c2ccc(OC)cc2)n1 8.25% [at 57.5 µM], O=C(c1ccco1)N1CCN(Cc2ccc3c(c2)CCO3)CC(O)C1 (configuration not stated) -0.439%, O=C(Nc1cccc2ccccc12)O[C@@H]1CO[C@H]2[C@@H]1OC[C@@H]2n1nnnc1-c1ccc(-c2ccccc2)cc1 -0.841%, O=C(NCCc1csc(-c2cccnc2)n1)C1NCCc2[nH]cnc21 (configuration not stated) 41.8%, CC1=C[C@@H](CNC(=O)CCCC(=O)O)[C@H](C(C)C)C[C@H]1Cc1nc2ccc(F)cc2[nH]1 2.35% [at 57.5 µM], O=C(NC1CCN(c2cc(-c3ccc(Cl)cc3)[nH]n2)C1)c1ccncc1 (configuration not stated) -0.646%, CN(C)Cc1cn([C@H]2CO[C@H]3[C@@H]2OC[C@H]3OC(=O)Nc2ccc(C(C)(C)C)cc2)nn1 -1.48% [at 57.5 µM], CNC(=O)C1CCN(C(=O)N2CC3CC(C2)[C@H]2CCCC(=O)N2C3)CC1 (some centres not stated) 0.794%, O=C(NC[C@H]1COCc2nc3cc(F)ccc3n21)C1CC1 1.94% [at 76.7 µM], Cc1cccc(CC(=O)N2CCC[C@H]2c2nc(-c3ccccc3)no2)c1 0.638%, Cc1cccc(OCCc2noc(C3CCCNC3)n2)c1 (configuration not stated) -1.31%, COc1ccc(S(=O)(=O)N2CCc3c(C(=O)NC4CC4)cccc32)cc1 -2.8%, O=C(C[C@@H]1CCNC[C@@H]1Cc1cc(-c2ccc(F)cc2)on1)NCc1ccccc1 -1.28% [at 57.5 µM], CS(=O)(=O)N1CCC(C2CCN(C(=O)Cc3cccc(F)c3)C2)CC1 (configuration not stated) 0.205%, O=C(O)c1ccc(CN2CC[C@@H](c3ccc4c(c3)OCO4)[C@H](O)C2)cc1 1.1%, CC(NC(=O)c1ccc(C(C)(C)C)cc1)C(=O)N1CCN(c2ccccn2)CC1 (configuration not stated) -2.8%, CN1CCCC2(C1)CN(Cc1cccnc1)c1ccc(C(=O)Nc3ccccc3)cc12 (configuration not stated) 7.09% [at 57.5 µM], Cc1cc(C(=O)N[C@H]2[C@H](O)[C@H](O)C[C@@H]2c2cccnc2)no1 0.945% [at 57.5 µM], Cc1cc(-c2cc3c(cn2)CN(Cc2ccccc2O)CCN3)ccn1 -0.469% [at 57.5 µM], NC(=O)c1ccc(NC(=O)C[C@H]2NC(=O)c3ccccc3NC2=O)cc1 3.35%, CSc1ccc(-c2ccc3c(c2)C(=O)N2CCN(C(=O)CCC(=O)O)C[C@H]2C(=O)N3)cc1 11.9%, CSc1cccc(NC(=O)N[C@H]2CCN3C(=O)[C@H](CC4CCCCC4)NC(=O)[C@@H]3C2)c1 2.02%, Cc1noc(C)c1CCC(=O)NC(c1cnn(C)c1)C1CC(O)C1 (configuration not stated) -3.01%, CCCN1C(=O)Cc2ccccc2C1C(=O)NCc1cccc(F)c1 (configuration not stated) 0.712%, CNC(=O)[C@@H](C1CC1)N1CCC[C@H]1C(=O)NC1CC1 -0.0114% [at 76.7 µM], CCOC(=O)N1CCC(N2CCCCC(N)C2)CC1 (configuration not stated) 28.6%, OC1(c2csc(CN3CCN(c4ccccn4)CC3)n2)CCN(CC2CCCCC2)CC1 0.0529%, CN(C)CCOCC1(C)COc2ccc(C(=O)Nc3ccc4[nH]ccc4c3)cc2N1 (configuration not stated) 4.2% [at 57.5 µM], Fc1ccc(-c2cc(CC3(NC4CCCCC4)COC3)no2)cc1 -1.11% [at 57.5 µM], COCC(=O)NC[C@@H]1C=C(C)[C@H](CC(=O)Nc2ccccn2)C[C@H]1C(C)C 2.59% [at 57.5 µM], Cc1noc2c(-c3cccc(CO)c3)cc(-c3cccs3)nc12 6.84% [at 57.5 µM], O=C(CCc1ccc(O)cc1)N1CCN(Cc2ccccc2)CC(O)C1 (configuration not stated) -0.0853%, O=C(Cc1c[nH]c2ncc(-c3cccc(F)c3)cc12)NCc1cccnc1 4.52% [at 57.5 µM], CS(=O)(=O)c1ccc(CN2CCC[C@H]2c2nc(-c3ccnc(N4CCC(C(N)=O)CC4)c3)no2)cc1 2.02%, CCNC(=O)[C@@H]1CCCN1[C@@H](C(=O)NC)c1ccccc1F 54.3% [at 57.5 µM], Cc1ccc(CCNC(=O)Cn2nc(C)n(CCc3ccccc3)c2=O)o1 0.0117%, Cc1oc(C(O)c2cccc(O)c2)nc1C(=O)Nc1ccc(N2CCOCC2)cc1 (configuration not stated) 15.8% [at 57.5 µM], O=C(COc1ccccc1)N1CC[C@H]2CC(=O)N(c3ccccc3)CC[C@H]2C1 -1.14% [at 57.5 µM], COc1cccc(N2C(=O)N[C@@H]3CCN(S(=O)(=O)c4ccccc4)[C@@H]3C2=O)c1 0.866% [at 57.5 µM], O=C(O)[C@@H]1CN(C(=O)c2ccc(=O)[nH]c2)C[C@H]1c1ccc2c(c1)OCO2 4.89%, Cc1ccc(-c2nc(CNC(=O)C3CCNC3)[nH]c2-c2ccccn2)cc1 (configuration not stated) 61%, CC(=O)NC1(C)CCN(Cc2cccc(-c3ccc4ccccc4c3)c2)C1 (configuration not stated) 0.607% [at 57.5 µM], O=C(NCC(F)F)C1CN(c2ccccc2)C(=O)N1 (configuration not stated) -1.2% [at 57.5 µM], CCCn1nc(C)c(-c2cc(C(=O)N3CCc4c(nc5cc(-c6ccccc6)[nH]n5c4=O)C3)[nH]n2)c1C 1.03%, CN(Cc1ccc(F)cc1)c1ccc2ncc(Nc3cccc(O)c3)n2n1 41.8% [at 57.5 µM], Nc1nc(NCCNC(=O)c2ccccc2Cl)cc(C2CC(O)C2)n1 (configuration not stated) -0.118%, O=c1n(-c2ccc(C(F)(F)F)cc2)nc2n1CCN(Cc1ccc(C(F)(F)F)cc1)C2 43.6%, NC1CCCCN(C(=O)c2ccc3n[nH]nc3c2)C1 (configuration not stated) 3.69%, CCCCN1C(=O)[C@@H]2C[C@@H](O)CN2C2(CN(CC3CC3)C2)C1=O 1.28% [at 57.5 µM], CC(C)n1cnnc1-c1nn(C)c2c1CN(C(=O)Cc1c[nH]c3ccccc13)CC2 0.268%, CSc1ccc(C(C(=O)O)N2CCN(Cc3csc(C)n3)CC2)cc1 (configuration not stated) 37%, OCc1cccc(-c2ccc3ncc(Nc4ccccc4Cl)n3n2)c1 33.7% [at 57.5 µM], CC(C)(CC(=O)O)CC(=O)N1CCN2C(=O)N(CCc3cccs3)C(=O)[C@H]2C1 2.11% [at 57.5 µM], CCc1[nH]nc(-c2nc(C3CC3)nn2-c2ccc(S(N)(=O)=O)cc2)c1C -3.48%, COC(=O)[C@@H](Cc1cccnc1)NC(=O)[C@H]1CN(C(=O)Nc2ccccc2)CCN1S(=O)(=O)c1ccccc1 2.46%, O=C(N[C@@H]1COCC[C@@H]1OCc1ccccc1)c1nc2ncccc2[nH]1 26.5%, Cn1ccc2c(C(=O)NCCc3cnc[nH]3)nc(-c3cccc(CO)c3)cc21 30% [at 57.5 µM], Cc1ncc2c(c1CNC(=O)CCn1c(=O)[nH]c3ccccc31)CCNC2 20.6%
